We go through 31 sequences from paper PMC12820563.

The other results are listed elsewhere or left out. The list includes weakly bound sequences.

The assay deals with T1, MBP-FoxP3dN (UniProt Q99JB6).
T1 sequence: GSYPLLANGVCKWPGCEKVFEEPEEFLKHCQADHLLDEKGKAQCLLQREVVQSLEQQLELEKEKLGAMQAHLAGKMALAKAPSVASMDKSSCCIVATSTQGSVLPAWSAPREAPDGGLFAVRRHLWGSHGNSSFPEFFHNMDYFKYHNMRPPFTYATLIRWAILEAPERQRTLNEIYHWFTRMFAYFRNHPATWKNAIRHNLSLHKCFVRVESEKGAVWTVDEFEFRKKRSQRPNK
In words: PD-seq (MBP pull-down with sequencing). The note with it: 20 mM Tris-HCl pH 7.5, 100 mM NaCl, 1.5 mM MgCl2, 0.4 uM protein, 0.1 uM dsDNA library, 30 min, room temperature, amylose pull-down; high values mean tight binding; double strand, one strand shown.
As to “GATGATTGTTCTCCCAGCTGATGAATTGTTCTTGTCGAGTAAACAAATTTTCCTAATCTTTCTGTTCAAGCGCCATCTAC”, the binding signal (RPM ratio (pull-down/input)) amounted to 0.412. For “GATGATTGTTCTCCCAGCTGATGAATTGGGTAGATCGAGTAAACAAATTTTCCTAATCTTTCTGTTCAAGCGCCATCTAC”, the binding signal (RPM ratio (pull-down/input)) stood at 0.323. In the case of “GATGATTGTTCTCCCAGCTGATGAATTTTAGAGTTCGAGTAAACAAATTTTCCTAATCTTTCTGTTCAAGCGCCATCTAC”, the binding signal (RPM ratio (pull-down/input)) is 0.434.

Regarding “GATGATTGTTCTCCCAGCTGATGAATTACAGGGTTCGAGTAAACAAATTTTCCTAATCTTTCTGTTCAAGCGCCATCTAC”, the binding signal (RPM ratio (pull-down/input)) turned out to be 0.437. For the sequence “GATGATTGTTCTCCCAGCTGATGAATTTGGGTTATCGAGTAAACAAATTTTCCTAATCTTTCTGTTCAAGCGCCATCTAC”, the binding signal (RPM ratio (pull-down/input)) turned out to be 0.888. For the sequence “GATGATTGTTCTCCCAGCTGATGAATTCATGCTGTCGAGTAAACAAATTTTCCTAATCTTTCTGTTCAAGCGCCATCTAC”, the binding signal (RPM ratio (pull-down/input)) was determined as 0.686.

With “GATGATTGTTCTCCCAGCTGATGAATTGGCGTTGTCGAGTAAACAAATTTTCCTAATCTTTCTGTTCAAGCGCCATCTAC”, the binding signal (RPM ratio (pull-down/input)) is 1.16. Regarding “GATGATTGTTCTCCCAGCTGATGAATTGTCTCCTTCGAGTAAACAAATTTTCCTAATCTTTCTGTTCAAGCGCCATCTAC”, the binding signal (RPM ratio (pull-down/input)) amounted to 0.397. To “GATGATTGTTCTCCCAGCTGATGAATTTTCAGCGTCGAGTAAACAAATTTTCCTAATCTTTCTGTTCAAGCGCCATCTAC” belongs 0.439; to “GATGATTGTTCTCCCAGCTGATGAATTTGCTCCCTCGAGTAAACAAATTTTCCTAATCTTTCTGTTCAAGCGCCATCTAC”, 0.583; to “GATGATTGTTCTCCCAGCTGATGAATTGCGCGCGTCGAGTAAACAAATTTTCCTAATCTTTCTGTTCAAGCGCCATCTAC”, 2.67. For the sequence “GATGATTGTTCTCCCAGCTGATGAATTAGCGATTTCGAGTAAACAAATTTTCCTAATCTTTCTGTTCAAGCGCCATCTAC”, the binding signal (RPM ratio (pull-down/input)) was determined as 0.695.

For “GATGATTGTTCTCCCAGCTGATGAATTCTAAAAGTCGAGTAAACAAATTTTCCTAATCTTTCTGTTCAAGCGCCATCTAC”, the binding signal (RPM ratio (pull-down/input)) stood at 0.187.

On to “GATGATTGTTCTCCCAGCTGATGAATTGTATTGCTCGAGTAAACAAATTTTCCTAATCTTTCTGTTCAAGCGCCATCTAC”, for which the binding signal (RPM ratio (pull-down/input)) was 2.59. For “GATGATTGTTCTCCCAGCTGATGAATTGCCAGACTCGAGTAAACAAATTTTCCTAATCTTTCTGTTCAAGCGCCATCTAC” the value was 0.378; for “GATGATTGTTCTCCCAGCTGATGAATTCAGCCCTTCGAGTAAACAAATTTTCCTAATCTTTCTGTTCAAGCGCCATCTAC”, 0.806.

For “GATGATTGTTCTCCCAGCTGATGAATTGCATGGATCGAGTAAACAAATTTTCCTAATCTTTCTGTTCAAGCGCCATCTAC”, the binding signal (RPM ratio (pull-down/input)) came out at 1.1.

With “GATGATTGTTCTCCCAGCTGATGAATTTGACTCATCGAGTAAACAAATTTTCCTAATCTTTCTGTTCAAGCGCCATCTAC”, the binding signal (RPM ratio (pull-down/input)) was determined as 0.606. To “GATGATTGTTCTCCCAGCTGATGAATTTAAATAGTCGAGTAAACAAATTTTCCTAATCTTTCTGTTCAAGCGCCATCTAC” belongs 0.402; to “GATGATTGTTCTCCCAGCTGATGAATTAAACAGATCGAGTAAACAAATTTTCCTAATCTTTCTGTTCAAGCGCCATCTAC”, 0.408. To “GATGATTGTTCTCCCAGCTGATGAATTAGGCATATCGAGTAAACAAATTTTCCTAATCTTTCTGTTCAAGCGCCATCTAC” belongs 2.17; to “GATGATTGTTCTCCCAGCTGATGAATTGCTAACCTCGAGTAAACAAATTTTCCTAATCTTTCTGTTCAAGCGCCATCTAC”, 0.572; to “GATGATTGTTCTCCCAGCTGATGAATTGGGTAGTTCGAGTAAACAAATTTTCCTAATCTTTCTGTTCAAGCGCCATCTAC”, 0.703. With “GATGATTGTTCTCCCAGCTGATGAATTCTACCACTCGAGTAAACAAATTTTCCTAATCTTTCTGTTCAAGCGCCATCTAC”, the binding signal (RPM ratio (pull-down/input)) is 0.392. To “GATGATTGTTCTCCCAGCTGATGAATTAAGCTGATCGAGTAAACAAATTTTCCTAATCTTTCTGTTCAAGCGCCATCTAC” belongs 0.512; to “GATGATTGTTCTCCCAGCTGATGAATTAGGGATATCGAGTAAACAAATTTTCCTAATCTTTCTGTTCAAGCGCCATCTAC”, 0.46; to “GATGATTGTTCTCCCAGCTGATGAATTACTACGTTCGAGTAAACAAATTTTCCTAATCTTTCTGTTCAAGCGCCATCTAC”, 0.412.

For the sequence “GATGATTGTTCTCCCAGCTGATGAATTTGAGACCTCGAGTAAACAAATTTTCCTAATCTTTCTGTTCAAGCGCCATCTAC”, the binding signal (RPM ratio (pull-down/input)) amounted to 0.355. On to “GATGATTGTTCTCCCAGCTGATGAATTGCAACGATCGAGTAAACAAATTTTCCTAATCTTTCTGTTCAAGCGCCATCTAC”, for which the binding signal (RPM ratio (pull-down/input)) amounted to 1.15. Regarding “GATGATTGTTCTCCCAGCTGATGAATTCTGTAGGTCGAGTAAACAAATTTTCCTAATCTTTCTGTTCAAGCGCCATCTAC”, the binding signal (RPM ratio (pull-down/input)) worked out at 0.948.

As for “GATGATTGTTCTCCCAGCTGATGAATTCGTGAAGTCGAGTAAACAAATTTTCCTAATCTTTCTGTTCAAGCGCCATCTAC”, the binding signal (RPM ratio (pull-down/input)) came to 0.253.
